In all, about 33,000 sequences were measured (“E-score (dimensionless, -0.5 to 0.5)”: median about -0.058, highest 2% from about 0.35 on). The list shows a part of the results.
system: MvaT; experiment: PBM 8-mer E-score (mean of HK and ME arrays) (E-score (dimensionless, -0.5 to 0.5)); higher = stronger relative binding preference; most listed sequences are background and not binding sites
Method in brief: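 Reported values are rank-based E-scores, taken as the mean of two universal arrays and parsed with a custom script. Each 8-mer score falls between -0.5 and 0.5. The arrays, ME and HK, were double-stranded 60-mers with a constant 25-mer primer region and a variable 35-mer region covering all 8-mers. They were probed, by an earlier protocol, with full-length P. aeruginosa MvaT carrying an N-terminal glutathione S-transferase fusion.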

Going from CTGAATGA to GCACGGGC, the “PBM 8-mer E-score” value rises from -0.134 to -0.125.

Compared with ATCTTTTA, ACTCAGGA is lower in “PBM 8-mer E-score” value: 0.249 for the first, -0.116 for the second.

Going from GCCGCGCA to AAGATCGG, the “PBM 8-mer E-score” value rises from -0.162 to -0.106.

Compared with GCGGTAAC, AAAACGTG is higher in “PBM 8-mer E-score” value: -0.191 for the first, -0.151 for the second.

Compared with AACGAAGA, GGCCGAAA is lower in “PBM 8-mer E-score” value: 0.03 for the first, -0.059 for the second.

Going from CTCCTTGC to AGAATGGG, the “PBM 8-mer E-score” value rises from -0.19 to -0.133.

Going from CCTATGGC to AAACGGTC, the “PBM 8-mer E-score” value rises from -0.289 to -0.208.

Compared with ATGGAACA, AGGGAAAC is lower in “PBM 8-mer E-score” value: 0.137 for the first, -0.0837 for the second.

First: TATGATCA
Second: AGAGGTAA
The “PBM 8-mer E-score” value of the first is higher: 0.241 for the first, 0.0272 for the second.

Compared with GATCCGAA, CCCTTAGC is lower in “PBM 8-mer E-score” value: 0.0726 for the first, -0.265 for the second.

Going from CGTTAAAC to CACTAAAA, the “PBM 8-mer E-score” value rises from 0.141 to 0.225.

Compared with GGAAAAGA, ATTACGGA is higher in “PBM 8-mer E-score” value: -0.0229 for the first, 0.227 for the second.

Compared with AGGATCTA, GATGTAAA is higher in “PBM 8-mer E-score” value: -0.157 for the first, 0.151 for the second.

Compared with TCGTAACA, AATCCCGT is higher in “PBM 8-mer E-score” value: -0.0611 for the first, 0.00366 for the second.

Going from GGCCGCAC to AATTCAAC, the “PBM 8-mer E-score” value rises from -0.267 to 0.191.

Compared with CGATGGAC, ATATTTGG is higher in “PBM 8-mer E-score” value: -0.23 for the first, 0.177 for the second.

Compared with CTCCGGAA, GACTACGC is lower in “PBM 8-mer E-score” value: -0.063 for the first, -0.144 for the second.

Compared with ACTATCCG, TCTTTCCA is lower in “PBM 8-mer E-score” value: 0.111 for the first, 0.0162 for the second.

First: CCAGCCCG
Second: CCTACAGG
The “PBM 8-mer E-score” value of the first is higher: -0.177 for the first, -0.26 for the second.

Compared with ATAACAAG, AAAGGTAA is lower in “PBM 8-mer E-score” value: 0.283 for the first, 0.139 for the second.

Compared with AAAAGTTA, ACTTTCGA is lower in “PBM 8-mer E-score” value: 0.371 for the first, 0.0758 for the second.

Compared with GCGTACGC, GGCAGTGA is higher in “PBM 8-mer E-score” value: -0.236 for the first, -0.221 for the second.

Compared with CAAAAGAG, AATCGGCA is higher in “PBM 8-mer E-score” value: -0.111 for the first, -0.0906 for the second.

Going from CTCACTGA to CACCGGCC, the “PBM 8-mer E-score” value falls from -0.186 to -0.202.

First: GGGCAGAC
Second: GGAGACCC
The “PBM 8-mer E-score” value of the first is lower: -0.296 for the first, -0.244 for the second.

Going from GCATGACA to CTTCGGCC, the “PBM 8-mer E-score” value rises from -0.249 to -0.145.

Compared with ATAGACAT, AACCAAAT is higher in “PBM 8-mer E-score” value: -0.0368 for the first, 0.233 for the second.

Going from CTGCGTTA to GATTGCCA, the “PBM 8-mer E-score” value rises from -0.0902 to 0.0164.

Going from AGTAGGGG to AGTCTTCA, the “PBM 8-mer E-score” value rises from -0.227 to 0.0759.

Compared with AAAGTTGT, AACGAGGC is lower in “PBM 8-mer E-score” value: 0.264 for the first, -0.0813 for the second.

First: ATTATGAG
Second: ATCCACAG
The “PBM 8-mer E-score” value of the first is higher: 0.222 for the first, -0.00723 for the second.

Going from ATTAGACG to ATTGAATA, the “PBM 8-mer E-score” value rises from 0.108 to 0.234.

Going from CGAACGGC to GGCTGTGA, the “PBM 8-mer E-score” value rises from -0.123 to -0.0788.

First: GAGCAACC
Second: GACGTCCC
The “PBM 8-mer E-score” value of the first is higher: -0.232 for the first, -0.261 for the second.

Going from AGAACATG to CCAACGGG, the “PBM 8-mer E-score” value falls from 0.0469 to -0.262.

Compared with CGGTATCA, TGCTTAAA is higher in “PBM 8-mer E-score” value: 0.0368 for the first, 0.287 for the second.

Going from GCCCTTCA to CATGTATC, the “PBM 8-mer E-score” value rises from -0.316 to 0.12.

Compared with AGGTCGGA, AGCGTAAT is higher in “PBM 8-mer E-score” value: -0.238 for the first, 0.165 for the second.

Going from TAAACCAA to ATTTACTC, the “PBM 8-mer E-score” value falls from 0.338 to 0.0973.

First: AGGATGTG
Second: ACGGGCCG
The “PBM 8-mer E-score” value of the first is higher: -0.0802 for the first, -0.277 for the second.

Compared with TCCAGTCA, GATTTAGC is higher in “PBM 8-mer E-score” value: -0.0459 for the first, 0.024 for the second.

First: CGGCTGCC
Second: GGTCTCCA
The “PBM 8-mer E-score” value of the first is lower: -0.286 for the first, -0.116 for the second.

First: GAGTCTTA
Second: AATTACGA
The “PBM 8-mer E-score” value of the first is lower: 0.0735 for the first, 0.298 for the second.

First: CCTTGACG
Second: AGAGCGTG
The “PBM 8-mer E-score” value of the first is lower: -0.249 for the first, -0.0625 for the second.

Going from CCATGACC to AGCCGCGC, the “PBM 8-mer E-score” value rises from -0.276 to -0.221.

Going from CCTTCCAG to GGCCCGCA, the “PBM 8-mer E-score” value falls from -0.288 to -0.33.

Compared with AGATGCCA, AATGAAGA is higher in “PBM 8-mer E-score” value: -0.166 for the first, 0.166 for the second.

Compared with AGGTGGCC, CACAAGGG is lower in “PBM 8-mer E-score” value: -0.221 for the first, -0.238 for the second.

First: ACACAGGT
Second: AGTGGGAC
The “PBM 8-mer E-score” value of the first is lower: -0.0956 for the first, 0.00019 for the second.
